The campaign covered roughly 150,000 compounds. About 540 (0.36%) showed an effect of 50% or more. The list shows a part of the results.
System: Plasmodium falciparum
Test: Primary screen in NF54 nanoGlo assay, in single point, at 2uM, 72h; a lower Z score goes with more inhibition
Assay type: functional, Erythrocyte
Conditions: timepoint 72 hour

Compound | % Inhibition [%] | Z score
Cc1ccc(C(=O)N[C@@H](C2CCOCC2)C2(CO)CCC2)o1 | 2 | -0.36
COC(=O)[C@@]1(CO)N[C@@H](c2c(F)ccc(F)c2Cl)[C@H]2C(=O)N(C)C(=O)[C@H]21 | -7 | 1.09
COCCN1CCN2C(=O)[C@H](Cc3ccccc3)N(C(=O)c3ccc(C)s3)C[C@H]2C1=O | -17 | 1.51
CN1CCN(C[C@@H]2CN(C(=O)Cc3ccccc3F)C[C@@H]2CO)CC1 | 7 | -0.64
COc1ccc(CCc2nc(-c3ccc(N4CCCC4)cc3)no2)cc1 | 2 | -0.28
COc1ccc(Cl)cc1NC(=O)Cn1c2c(c(=O)n(C3CCCCC3)c1=O)CCC2 | -9 | 1.62
Cn1cc(-c2ccc(C(=O)N3C[C@H]4CCC[C@H]4C3)o2)cn1 | -20 | 1.99
CN(C)Cc1csc(CN2CCCC23CCN(c2ccccn2)CC3)c1 | -6 | 0.66
CCC(C)CN1C(=O)C(Cc2ccccc2)NC12CCN(C(=O)c1cccc(OC)c1)CC2 (centres undefined) | 28 | -3.84
N#CCCC(C#N)CNCC1CN(C2CC2)CCO1 (centres undefined) | 0 | -0.02
COc1ccc(C(=O)N2CC[C@@](F)(C(=O)NCc3ccccc3)C2)c(C)c1 | -4 | 0.47
Cc1sc(S(=O)(=O)N2CCCC2)cc1NC(=O)c1cccc(N(C)C)c1 | -4 | 0.45
O=C(c1cncc(O)c1)N1CC2(CCCC2)[C@H]1c1ccccc1 | 5 | -0.67
Cc1[nH]c2ccccc2c1C1(c2c(C)[nH]c3ccccc23)C(=O)Nc2ccc(Cl)cc21 | 9 | -1.06
COC[C@@H]1[C@H](NC(=O)c2cccc(-c3ccccc3OC)c2)[C@H]2CCO[C@H]21 | -2 | 0.39
COc1ccc(CC(=O)Nc2ncnn2C)cc1 | -9 | 1.66
Cc1nc(C(=O)Nc2ccc(N3CCOCC3)nc2)c2n1CCCC2 | -9 | 0.74
O=C1N[C@@H](C2CCCCC2)C(=O)N[C@H]1c1ccccc1 | -9 | 1.35
COC(=O)C1CCCCC1S(=O)(=O)NC1CCOC2(CCCC2)C1 (centres undefined) | -7 | 1.14
Cc1ccn(CC(C)NC(=O)c2cn(CC(O)c3cccs3)nn2)n1 (centres undefined) | -15 | 2.9
CN(C)C(=O)C1CCCC(NS(=O)(=O)c2ccc3c(c2)OCCO3)C1 (centres undefined) | 6 | -0.94

Compound | % Inhibition [%] | Z score
COc1ccc(C2Nc3ccc(C)cc3[C@H]3OCCC[C@@H]23)cc1C (some centres undefined) | -12 | 1.68
CCOC(=O)c1c(Cl)c2ncc(S(=O)(=O)N(C)C)cc2n1C | -9 | 0.91
C=CCc1c(C)nc(N)nc1NC[C@H]1CCCN(S(C)(=O)=O)C1 | -1 | 0.17
O=C(NCC(=O)N1CCC[C@@]12CCOC2=O)c1cccc(Cl)c1 | 0 | 0.04
C[C@H](OC(=O)c1ccc2[nH]ncc2c1)c1nc2ccccc2n1C(F)F | -12 | 1.24
OCC1(CN2CCCC2)CCN(Cc2ccc(Cl)cc2)CC1 | 2 | -0.36
Cn1ccc(CCNC(=O)[C@H]2CC[C@H](Nc3cnccn3)CC2)n1 | -3 | 0.55
CN(CCCc1nccn1C)c1cc([C@H]2C[C@@H](O)C2)nc(N)n1 | -8 | 1.38
CC(C)(C)c1cnc(Cn2nc3ccccn3c2=O)o1 | 1 | -0.22
Cc1cc(OC2CN(C(=O)Cc3cccc(C(F)(F)F)c3)C2)cc(=O)n1C1CC1 | -4 | 0.46
COCc1ccc(C(=O)N2CC[C@@]3(CCCN(Cc4cccc(C)c4)C3)C2)s1 | -14 | 2.26
CN1CCN(c2ncccc2CNC(=O)c2ccc3c(N)ncnc3c2)CC1 | 0 | -0.06
Cc1csc(C(C)NC(=O)NCC(C)N(C)Cc2ccccc2)n1 (centres undefined) | 16 | -2.24
CCC(=O)Nc1c(C)noc1/C=C\c1ccc(S(=O)(=O)Nc2ccc(C#N)cc2)cc1 | -19 | 2.68
O=C(c1ccc(N2CCC2)nc1)N1CCOC[C@@H]1Cc1ccccc1 | -2 | 0.19
CC(=O)Nc1nc(C(=O)Nc2nc(-c3ccc(C)cc3)cs2)cs1 | 10 | -1.31
CCOCCC1(CNC(=O)C(C)(C)[C@H]2CCCN(C(=O)OC(C)(C)C)C2)CCC1 | 13 | -1.19
CCCN(C(=O)COc1cccc2c1OC(C)(C)C2)C1CCN(C(=O)c2ccccc2)CC1 | 3 | -0.4
COC[C@@H](c1ccnn1C)n1cc(-c2oc3ccc(C)cc3c2C)nn1 | -14 | 2.68
Cc1ccccc1[C@H]1CN(C(=O)CCc2c(C)noc2C)C[C@@H]1C(=O)O | -11 | 1.25
CC(C)(C)OC(=O)N1CCC2(CO)CC12 (centres undefined) | -11 | 1.22

Compound | % Inhibition [%] | Z score
CCOCc1cnc(C)nc1NCC(=O)c1c(C)[nH]c2ccccc12 | 11 | -1.56
Cc1ccc([C@H](O)CNC(=O)c2nc3c(s2)CCC3)cc1 | -6 | 1.16
CC(C)C(OC(=O)c1ccnn1C)C(=O)NC1CCOc2ccccc21 (centres undefined) | -5 | 0.55
CN(CCN(C)C1CC1)C(=O)[C@]12CC[C@H](CC1=O)C2(C)C | -1 | 0.25
CC(C(=O)N1CCCC1Cc1c(F)cccc1Cl)S(C)(=O)=O (centres undefined) | -1 | 0.07
O=C(O)c1cccc(CN(Cc2ccoc2)C2CC2)c1Cl | -12 | 2.28
Cc1cc(=O)n2ncc(C(=O)Nc3ccccc3)c2[nH]1 | -2 | 0.34
Cc1cc(C(=O)NC[C@@]2(O)C=CCCC2)no1 | 2 | -0.26
CC1(C)CCC(NC(=O)c2ncoc2C2CC2)(C(N)=O)CC1 | -9 | 1.57
CN(C)c1ccc(-c2noc(C3CCCCC3)n2)cc1 | -12 | 1.64
CN(C(=O)Cc1csc(N2CCCNC2=O)n1)c1ccc(F)cc1 | 0 | 0
O=C(CC1CCN(C(=O)c2ccccc2Cl)CC1)NCCN1CCN(Cc2ccccc2)CC1 | -7 | 1.28
CC1=Nc2ccc(Cl)cc2-c2[nH]c3ccccc3c2N1 | 6 | -1.12
Cc1cc(C(=O)Nc2ccc(NC(=O)NCc3ccco3)cc2)c2c(=O)[nH]n(C)c2n1 | -10 | 1.98
COc1c(F)cccc1C(=O)N1CCCN2CCC[C@H]2C1 | -16 | 3.02
CCc1nc(CN2C(=O)COc3cc(S(=O)(=O)N4CCC(C)CC4)c(Cl)cc32)no1 | 0 | -0.05
CC(C)=CCN1CC2(CCN(C(=O)c3oc(C)nc3C)CC2)CC1=O | -15 | 1.7
CCCC(NC(=O)C(C)n1cncn1)C(=O)N1CCc2sccc2C1 (centres undefined) | -15 | 2.76
C=CCn1nc(C)c([C@H]2c3nc[nH]c3CCN2Cc2cc(C)c(C)o2)c1C | -9 | 1.01
CC(C)c1noc(CN2CC[C@H](NC(=O)c3ccccn3)[C@@H](O)C2)n1 | -2 | 0.42
Cc1noc(C)c1CN1CCCN(C(=O)c2n[nH]c3ccccc23)CC1 | 33 | -0.69

Compound | % Inhibition [%] | Z score
O=C(NCc1ccnc(-c2cccs2)c1)NC1CCOCC1 | 0 | -0.01
Cc1nnc(OCC2CC3(CCC3)C2)s1 | -3 | 0.43
C[C@@H](CNC(=O)c1cc(C(N)=O)cs1)c1ccc(F)c(F)c1 | -10 | 1.93
CCc1nnc2nc(N3CCN(C(=O)Cc4ccc(OC)c(OC)c4)CC3)cc(C)n12 | -3 | 0.39
CN1C[C@@H](NC(=O)N2CCN(c3cccs3)CC2)CCC1=O | 5 | -0.52
COc1cc(-c2ncc(C(=O)NCC3CC3)c(N(C)C3CCCCC3)n2)cc(OC)c1OC | -3 | 0.4
COCC(=O)N[C@@H]1CN(C(=O)c2ccc(N(C)C)nc2)C[C@H]1c1ccnn1C | -16 | 2.58
Cn1ncc2c(N3CC4CCC(O)CC4C3)ccnc21 (centres undefined) | -3 | 0.34
OCc1cc2n(n1)CCN(c1ncc(F)c(N3CCOCC3)n1)C2 | 6 | -0.95
CC(C)c1nnc(NCc2c(Cl)cnn2C)s1 | -7 | 1.39
O=C(NCc1cc[nH]n1)C(=O)N1CCc2c(Cl)cccc21 | -3 | 0.58
O=C(N[C@H](CO)Cc1cccnc1)c1cccc2c1OCC2 | 0 | 0.08
CCN1CCN(c2cc(C)nc3nc(CN4CCC5(CC4)OCCO5)nn23)CC1 | -16 | 2.07
Cc1ccc2nc(-c3ccccc3C)c(NC(=O)Nc3ccc(Cl)cc3)n2c1 | -7 | 0.91
CN1CCN(CC(=O)NC[C@@]23CCC[C@@H]2OCC3)CC1=O | 8 | -1.11
C[C@@H](Cc1ccccc1F)N1CCC(n2cc(C3CC3)nn2)CC1 | 8 | -1.06
Cn1cnc([C@@H]2CN(c3ncnc4c3OCCN4)C[C@H]2C(=O)N2CCOCC2)c1 | -5 | 0.91
COc1cccc(-c2nccn2CC(=O)N2CCNCC2)c1OC | -21 | 2.73
O=C(Cc1cccc(F)c1)N1C[C@H]2CCC[C@@H](O)[C@H]2C1 | -12 | 1.14
